Data as given in PubChem BioAssay AID504832 (National Center for Advancing Translational Sciences (NCATS), 2011).
About 18,000 (5.8%) of roughly 310,000 compounds were called active. The inconclusive results got no clear call from the source; some entries with a clear call stand among them for comparison. The call rests on the fitted dose curve; in most records, active means well fitted inhibition curve with a large enough effect; inconclusive means small, poorly fitted or top-dose-only effect, or another doubt; inactive means no such curve, though single readings can be large or run the other way. Potencies of inconclusive entries are left out as doubtful fits.

Test: Primary qHTS for delayed death inhibitors of the malarial parasite plastid, 48 hour incubation
Conditions: P. falciparum luciferase growth in erythrocytes; series mostly up to 28.7 µM
Procedure, shortened: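 Erythrocytes infected with P. falciparum carrying an integrated firefly luciferase reporter (2% hematocrit, 0.1% parasitemia final) were exposed to compounds in RPMI 1640 with 0.5% Albumax at 37 C, 5% CO2. Growth inhibition was scored as reduced luminescence.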
Potency means the concentration at half of the fitted maximal effect; tags describe the fitted curve by direction and shape.

| SMILES | Potency |
| --- | --- |
| COc1ccc([N+](=O)[O-])cc1N(CC(O)CN1CCCCC1)S(=O)(=O)c1ccc(C)cc1 (stereo unspecified) | inconclusive [inhibitor, single point] |
| COC(=O)c1ccc(N2CCN(C)CC2)c(NC(=O)c2ccc(-c3ccc(Cl)cc3)o2)c1 | inconclusive [inhibitor, single point] |
| CC(C)Cc1nnc(NC(=O)c2ccc(S(=O)(=O)N3CCCC3)cc2)s1 | inactive |
| COc1cnc(-c2ccccc2)nc1Oc1ccc(C(C)(C)C)cc1 | inconclusive [inhibitor, single point] |
| COc1ccc(CNC(=O)c2cc(-c3ccco3)on2)cc1 | inconclusive [inhibitor, full curve, poor fit] |
| Cc1nc(Nc2ccc3c(c2)OCO3)c2oc3ccccc3c2n1 | inconclusive [inhibitor, single point] |
| O=C(NCc1ccco1)/C(=C\c1ccco1)NC(=O)c1ccccc1Cl | inconclusive [inhibitor, partial curve, poor fit] |
| COc1cccc(CN(C)CC(=O)Nc2cc(S(=O)(=O)N3CCCC3)ccc2Cl)c1OC | active: 11.7 µM |
| O=C(CCn1c(=O)c2cccn2c2cccnc21)N1CCN(c2cccc(Cl)c2)CC1 | active: 9.28 µM |
| C#CCOCCOCCOCCNc1nc(N2CCN(C(=O)[C@H]([C@@H](C)CC)n3cc([C@@H](N)CO)nn3)CC2)nc(N2CCN(C(=O)[C@H](Cc3ccc(O)cc3)n3cc([C@@H](N)C(C)CC)nn3)CC2)n1 (stereo partly specified) | inconclusive [inhibitor, single point] |
| Cc1ccc(/C=C/C(=O)O)cc1S(=O)(=O)N(CCO)CCO | inactive |
| CCOc1cc(C#N)c(NC(=O)CSc2nnnn2-c2ccc(OC)cc2)cc1OCC | inconclusive [inhibitor, single point] |
| O=[N+]([O-])c1cc(S(=O)(=O)C(F)(F)F)ccc1Sc1nc2ccccc2s1 | inconclusive [inhibitor, partial curve] |
| O=[N+]([O-])c1ccc(-[n+]2c(-c3ccccc3)cc(-c3ccccc3)cc2-c2ccccc2)cc1 | inconclusive [inhibitor, partial curve] |
| O=C(O)c1ccccc1-c1ccccc1C(=O)Nc1nc2ccccc2s1 | inconclusive [inhibitor, partial curve, poor fit] |
| O=C(C1CC(=O)N(c2ccccc2)C1)N1CCC(c2nc3ccccc3[nH]2)CC1 (stereo unspecified) | inconclusive [inhibitor, partial curve] |
| COc1ccc2c(c1OC)C(=O)N1c3ccccc3C(=O)N(c3ccccc3F)C21 (stereo unspecified) | active: 10.4 µM |
| Cc1ccc2c(CC(=O)N3CCN(c4ccccc4)CC3)coc2c1 | inactive |
| CC(=O)Nc1ccc(Oc2ccc(-c3noc(C)n3)cc2)cc1 | inconclusive [inhibitor, single point] |
| COc1ccc(CNC(=O)c2ccc(NC(=O)CC3SC(N4CCCC4)=NC3=O)cc2)cc1 (stereo unspecified) | inconclusive [inhibitor, partial curve, poor fit] |
| O=C1N(Cc2cccnc2)C[C@@H]2C[C@@H](c3ccccc3C(F)(F)F)N3CCC[C@@]123 | inconclusive [inhibitor, partial curve] |
| CCOC(=O)C1CSC(CC(=O)Nc2ccc(Cl)c(Cl)c2)C(=O)N1 (stereo unspecified) | inconclusive [inhibitor, single point] |

| SMILES | Potency |
| --- | --- |
| COc1ccc(S(=O)(=O)N2CCN(C3Cc4ccccc4C3)CC2)cc1 | inactive |
| CCC(CC)C(=O)c1c[nH]c(C(=O)NCc2ccccc2OC)c1 | inactive |
| COc1cc(NC(=O)c2ccc(-c3cccc([N+](=O)[O-])c3)o2)ccc1NC(=O)C(C)C | active: 10.4 µM |
| CN(C)c1ccc([C@@H]2[C@@H]([N+](=O)[O-])[C@H]3C=Cc4ccccc4N3[C@H]2C(=O)c2ccc(Cl)cc2)cc1 | inconclusive [inhibitor, single point] |
| CCCCN(CC)C(=O)Cn1cnc2ccc(S(=O)(=O)N3CCC(C)CC3)cc2c1=O | inconclusive [inhibitor, single point] |
| CCOC(=O)C(C#N)c1ccccn1 (stereo unspecified) | inactive |
| COc1ccc(-c2nc(CN3CCN(C(=O)c4ccco4)CC3)c(C)o2)c(F)c1 | inconclusive [inhibitor, partial curve] |
| CC(C)=CCN1CCN(CCC2=C(C)CCCC2(C)C)CC1CCO (stereo unspecified) | active: 13.1 µM |
| Clc1ccc(SCc2cc(-c3ccccc3)no2)cc1 | inconclusive [inhibitor, single point] |
| COc1ccc(N(C(C)=O)S(=O)(=O)c2cc(OC)ccc2OC)cc1 | inactive |
| O=C(c1ccc(CS(=O)c2cccc(Cl)c2)o1)N1CCN(C2CCCCC2)CC1 (stereo unspecified) | inactive |
| O=c1c2ccccc2nc(-c2ccccc2)n1-n1cccc1 | inconclusive [inhibitor, single point] |
| COc1ccccc1NC(=O)COC(=O)CCc1ccc(S(=O)(=O)N2CCOCC2)cc1 | inconclusive [inhibitor, partial curve, poor fit] |
| CCOC(=O)/C(C)=C1\NC(C)(C)Cc2ccccc21 | inconclusive [inhibitor, single point] |
| CC1(C)CC(=O)C=C(c2ccc(Cl)c(C(F)(F)F)c2)C1 | active: 5.86 µM |
| CCC(=C/c1sc2ccc3ccccc3c2[n+]1C)/C=C1\Sc2ccc3ccccc3c2N1C | active: 0.928 µM |
| CC(C)Oc1ccc(/C=N/NC(=O)C(CSCc2ccccc2)NC(=O)c2ccc([N+](=O)[O-])cc2)cc1 (stereo unspecified) | active: 11.7 µM |
| Cc1cc(C)cc(N2C(=O)CN(Cc3sccc3C)C2=S)c1 | active: 9.28 µM |
| O=c1cc(NC2CCCCCC2)[nH]c(=O)[nH]1 | inconclusive [inhibitor, single point] |
| Cc1nc2ccc(NC(=O)C3CCN(S(=O)(=O)c4cccs4)CC3)cc2s1 | inconclusive [inhibitor, single point] |
| CCOC(=O)c1nnc2c(Br)c(-c3ccccc3)nn2c1C | inconclusive [inhibitor, single point] |
| Cc1ccsc1/C=N/Nc1nc2ccccc2s1 | inactive |

| SMILES | Potency |
| --- | --- |
| COc1ccccc1N(C(=O)c1csnn1)C(C(=O)NC1CCCC1)c1ccccc1 (stereo unspecified) | inactive |
| COc1ccc(C(=O)Nc2ccc(S(=O)(=O)N3CCCCC3C)cc2)c(OC)c1OC (stereo unspecified) | inconclusive [inhibitor, partial curve, poor fit] |
| CCOc1c(Br)cc(C(=O)OCC(=O)N2CCc3ccccc3C2)cc1OC | inconclusive [inhibitor, single point] |
| CNC(=O)Nc1cccc(-c2cc(-c3c(Cl)cccc3Cl)no2)c1 | inactive |
| O=C(CSc1nnc(COc2ccccc2F)n1-c1ccccc1)NCc1ccco1 | inconclusive [inhibitor, single point] |
| Cc1cc(OC(C(=O)O)c2ccccc2)c2c(C)c(Cc3ccccc3)c(=O)oc2c1 (stereo unspecified) | inconclusive [inhibitor, partial curve] |
| O=C(CSc1ccccc1)Nc1cc(Cl)ccc1Oc1ccccc1 | inconclusive [inhibitor, single point] |
| C[C@@H]1NC(=O)c2cc([N+](=O)[O-])cc(I)c2OCC[C@@H](C(=O)NC(CC(=O)O)C(N)=O)NC(=O)[C@H](CC(N)=O)NC1=O (stereo partly specified) | inactive |
| C[N+]12CCCCC1C(COC(=O)c1ccc3c(c1)OCO3)CCC2 (stereo unspecified) | active: 9.28 µM |
| Cc1ccc(NC(=O)c2cc(S(=O)(=O)NCCC3=CCCCC3)ccc2F)cc1 | inconclusive [inhibitor, single point] |
| Cc1ccccc1NC(C)C(=O)N/N=C/c1c[nH]c2ccccc12 (stereo unspecified) | inconclusive [inhibitor, full curve, poor fit] |
| Cc1ccc(NC(=S)N(CCCN2CCCC2)Cc2cccn2Cc2ccc(Cl)cc2)cc1Cl | inconclusive [inhibitor, partial curve, poor fit] |
| CCO[C@@H]1OC(C(=O)N2CCN(Cc3ccccc3)CC2)=C[C@H](c2ccc(C(F)(F)F)cc2)[C@H]1CCCO | inconclusive [inhibitor, single point] |
| COc1ccccc1N1CCN(C/C=C/c2ccc(N(C)C)cc2)CC1 | inconclusive [inhibitor, single point] |
| Cc1cc(C)nc(S/C=C/C(=O)c2ccc(F)cc2)n1 | inconclusive [inhibitor, partial curve, poor fit] |
| COc1ccc(NC(=O)CN(C)C(=O)c2ccc(N3CCCCCC3)c([N+](=O)[O-])c2)cc1 | inconclusive [inhibitor, single point] |
| O=C1CCN(Cc2ccccc2)S(=O)(=O)c2ccc(C(F)(F)F)cc21 | inconclusive [inhibitor, single point] |
| COc1ccccc1NC(=O)CC1Nc2ccccc2NC1=O (stereo unspecified) | active: 3.7 µM |
| Cc1cccc(N2CCN(C(=O)C3CCN(c4nnc(-n5cccc5)s4)CC3)CC2C)c1 (stereo unspecified) | active: 13.1 µM |
| Cc1cc(C)nc(NC(=O)c2cccs2)n1 | inactive |
| CCc1ccc(NC(=O)CN(CC(=O)Nc2ccc(CC)cc2)CC(C)O)cc1 (stereo unspecified) | inconclusive [inhibitor, partial curve, poor fit] |
| O=C(NCc1ccccc1)c1ccccc1-c1nc2ccccc2[nH]1 | inactive |
